Molecules are shown by their SMILES. Structures can show the parent of a compound that is named as a salt. Whole data set: some 2,800 compounds, median “cell viability relative to vehicle” near 0.98, cut for the lowest 2% near 0.45. The list shows a part of the results.

The subject of the assay is NCI-H2228 alectinib-DTP. The experiment in a line: cell viability relative to vehicle (fraction of vehicle); NCI-H2228 is an ALK-positive lung cancer line and DTP means drug-tolerant persister; higher = less growth inhibition. The following applies: 100 nM; treatment time 6 days. An outline of the steps:
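NCI-H2228 parental cells and drug-tolerant persister cells were plated in 384-well plates; the persisters had been generated with 1000 nM of a targeted drug over 13 days. One day later, the 3114-agent TargetMol anti-cancer compound library was added at 100 nM, with DMSO serving as vehicle. ATP was measured 6 days after that using the CellTiter-Glo 3D Cell Viability Assay. Values are cell viability expressed relative to vehicle-treated cells.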
The compound `CCN1CCN(Cc2ccc(NC(=O)Nc3ccc(Oc4cc(NC)ncn4)cc3)cc2C(F)(F)F)CC1` showed a cell viability of 1.23. To `CCOC(=O)[C@H]1O[C@@H]1C(=O)N[C@@H](CC(C)C)C(=O)NCCC(C)C` [Aloxistatin] belongs 1.08; to `Cc1noc(-c2ccc(-c3ccc(CC(=O)O)cc3)cc2)c1NC(=O)OC(C)c1ccccc1Cl` (stereo not drawn), 1.01. In the case of `CCCCCCCCNc1cc(=O)[nH]c(=O)[nH]1`, the cell viability is 0.987. The same measure for `Nc1nc2c(ncn2COC(CO)CO)c(=O)[nH]1` [Ganciclovir]: 1.21; for `CC(C)c1cccc(O)c(=O)c1` [β-thujaplicin]: 0.965; for `Cc1csc(-c2nnc(Nc3ccc(Oc4ncccc4-c4ccnc(N)n4)cc3)c3ccccc23)c1`: 0.77. As to `CNCCc1ccccn1` [Betahistine mesylate], the cell viability was 1.09. To `CNCCc1ccccn1` [Betahistine dihydrochloride] belongs 1.19; to `CNCCc1ccccn1` [Betahistine], 0.973; to `CC1=C(C)C(=O)C(C(CCCCCC(=O)O)c2ccccc2)=C(C)C1=O` (stereo not drawn) [Seratrodast], 1.04.

Regarding `COc1c(C)cnc(Cn2cnc3c(Cl)nc(N)nc32)c1C`, the cell viability came out at 0.841.

In the case of `CN(C)C(=N)NC(=N)N` [Metformin hydrochloride], the cell viability is 1.07. `NCCCCCC(=O)O` [6-Aminocaproic acid]: the cell viability turned out to be 1.02. In turn, `C[C@H](O)[C@@H](O)[C@@H](O)[C@H](O)C=O` [L-(-)-Fucose] registered a cell viability of 1.09. As for `c1ccc2c(CCNc3ccc(Nc4ccncc4)cc3)c[nH]c2c1` [Serdemetan], the cell viability came out at 0.995.

The compound `O=C(Cc1ccccc1)Nc1nnc(CCSCCc2nnc(NC(=O)Cc3ccccc3)s2)s1` showed a cell viability of 1.12. For the compound `CCCNC(=O)NS(=O)(=O)c1ccc(Cl)cc1` [Chlorpropamide], the cell viability was found to be 1.21. To `COc1ccc(Cl)c(Nc2nc3ccccc3nc2NS(=O)(=O)c2cccc(NC(=O)C(C)(C)N)c2)c1` [Pilaralisib] belongs 0.99; to `CC(=O)O[C@]1(C(C)=O)CC[C@H]2[C@@H]3C=C(Cl)C4=CC(=O)CC[C@]4(C)[C@H]3CC[C@@]21C` [Chlormadinone acetate], 0.721; to `C=CCN(C)CCCCCCOc1ccc(C(=O)c2ccc(Br)cc2)c(F)c1` [Ro 48-8071 fumarate], 1.06. `Cc1cnc(Nc2ccc(OCCN3CCCC3)cc2)nc1Nc1cccc(S(=O)(=O)NC(C)(C)C)c1` [Fedratinib]: the cell viability came out at 0.876. The same measure for `Cn1ncnc1[C@H]1c2n[nH]c(=O)c3cc(F)cc(c23)N[C@@H]1c1ccc(F)cc1` [Talazoparib]: 0.928; for `CN(C)S(=O)(=O)c1ccc2c(c1)/C(=C/c1cc3c([nH]1)CCCC3)C(=O)N2`: 0.969. To `Clc1cccc(Cl)c1NC1=NCCN1` [Clonidine hydrochloride] belongs 1.06.

Compound `C[C@]12C=CC(=O)N[C@@H]1CC[C@@H]1[C@@H]2CC[C@]2(C)[C@@H](C(=O)Nc3cc(C(F)(F)F)ccc3C(F)(F)F)CC[C@@H]12` [Dutasteride] came in with a cell viability of 0.975. For the compound `CO[C@H]1/C=C/O[C@@]2(C)Oc3c(C)c(O)c4c(O)c(c5c(nc6cc(C)ccn65)c4c3C2=O)NC(=O)/C(C)=C\C=C\[C@H](C)[C@H](O)[C@@H](C)[C@@H](O)[C@@H](C)[C@H](OC(C)=O)[C@@H]1C` [Rifaximin], the cell viability amounted to 0.95. For `CCCCCOc1ccccc1/C(=C\SC)n1ccnc1` [Neticonazole Hydrochloride], the cell viability came out at 1.01. `CCN(CC)c1ccc(/C=N/NC(=O)c2ccc(O)cc2)cc1` gave a cell viability of 0.973.

On to `Nc1ccn([C@H]2C[C@H](O)[C@@H](CO)O2)c(=O)n1` [2'-Deoxycytidine monohydrate], for which the cell viability amounted to 1.03. `COc1cc(C(C)C)c(Oc2cnc(N)nc2N)cc1I`: the cell viability stood at 1.06.

Compound `O=C(O)CCc1ccc(NCc2cccc(Oc3ccccc3)c2)cc1` registered a cell viability of 0.92. Take `Cc1[nH]cnc1CN1CCc2c(c3ccccc3n2C)C1=O` [Alosetron hydrochloride]: the cell viability is 0.935. In turn, `O=S(=O)(c1cccc2c(O)nccc12)N1CCCNCC1` [Hydroxyfasudil Hydrochloride] yielded a cell viability of 1.1.

`Cc1cc(C)c(S(=O)(=O)N(CCc2cccc(Br)c2)Cc2ccc(-c3cccc(S(C)(=O)=O)c3)cc2)c(C)c1`: the cell viability is 1.12.

`C[C@@H]1O[C@@H](O[C@@H]2[C@@H](O)[C@H](OCCc3ccc(O)c(O)c3)O[C@H](COC(=O)/C=C/c3ccc(O)c(O)c3)[C@H]2O)[C@H](O)[C@H](O)[C@H]1O` [Isoacteoside] displayed a cell viability of 1.04.

`Clc1ccc2c(c1)CCc1cccnc1C2=C1CCNCC1` [Desloratadine] showed a cell viability of 0.967. As for `O=C1NCC2(CCN(CCc3ccccc3)CC2)O1` [Fenspiride hydrochloride], the cell viability was 1.23. The compound `CCS(=O)(=O)N1CC(CC#N)(n2cc(-c3ncnc4[nH]ccc34)cn2)C1` [Baricitinib Phosphate] gave a cell viability of 1.1.

In turn, `CCS(=O)(=O)N1CC(CC#N)(n2cc(-c3ncnc4[nH]ccc34)cn2)C1` [Baricitinib] gave a cell viability of 0.992. `CN(C)CCOC(c1ccccc1)c1ccccc1.Cn1c(=O)c2[nH]c(Cl)nc2n(C)c1=O` [Dimenhydrinate] displayed a cell viability of 1.05. To `Nc1nccc(Oc2ccc(NC(=O)c3c[nH]cc(-c4ccc(F)cc4)c3=O)cc2F)c1Cl` belongs 1.02; to `COc1cccc2c(NCc3ccccc3)nc(-n3c(N)nc4ccccc43)nc12`, 1.03; to `Nc1nc(O)c2[nH]nnc2n1` [8-Azaguanine], 0.78. To `O=C(c1c(F)ccc(NS(=O)(=O)N2CC[C@@H](F)C2)c1F)c1c[nH]c2ncc(-c3cnc(C4CC4)nc3)cc12` belongs 1.02; to `CC(=O)[C@@]1(O)CC[C@H]2[C@@H]3CCC4=CC(=O)CC[C@]4(C)[C@H]3CC[C@@]21C` [Hydroxyprogesterone], 0.937. In turn, `OC(c1cc(-c2ccc(Cl)cc2)nc2ccccc12)C1CCCCN1` (stereo not drawn) [Vacquinol-1] came in with a cell viability of 0.99. The same measure for `NC(=O)Nc1cc(-c2cccc(F)c2)sc1C(=O)N[C@H]1CCCNC1`: 0.741. The same measure for `C[C@H]1[C@H](C)CC[C@]2(C(=O)O)CC[C@]3(C)C(=CC[C@@H]4[C@@]5(C)CC[C@H](O)C(C)(C)[C@@H]5CC[C@]43C)[C@H]12` [Ursolic acid]: 1.11; for `CN(C[C@@H]1COCCO1)S(=O)(=O)Nc1ccc2ccc3ncc(-c4cnn(C)c4)cc3c(=O)c2c1`: 0.914; for `NNC(=O)c1ccncc1.Nc1ccc(C(=O)O)c(O)c1` [Pasiniazid]: 1.08.

For the compound `COc1cc(O)c(C(=O)/C=C/c2ccccc2)c(OC)c1` [Flavokawain B], the cell viability worked out at 1.13. In turn, `CCCc1nn(C)c2c(=O)[nH]c(-c3cc(S(=O)(=O)N4CCN(C)CC4)ccc3OCC)nc12` [Sildenafil citrate] showed a cell viability of 0.994. `CC1CCC(C(C)C)C(O)C1` (racemic) [DL-Menthol] had a cell viability of 1.17. The same measure for `COc1cc(NC(=O)Nc2cccc(CNC(=O)O[C@H]3CCOC3)c2)ccc1-c1cnco1` [Merimepodib]: 1.09. In turn, `N#CC[C@H](C1CCCC1)n1cc(-c2ncnc3[nH]ccc23)cn1` [Ruxolitinib] came in with a cell viability of 0.891.

For the compound `CCN1CCN(Cc2ccc(NC(=O)c3ccc(C)c(NC(=O)c4cncc(-c5cccs5)c4)c3)cc2C(F)(F)F)CC1`, the cell viability was 0.789.

The compound `Cn1cc(C2=C(c3cccc(N)c3)C(=O)NC2=O)c2ccccc21` displayed a cell viability of 0.932. Turning to `CCC(C)(C)C(=O)O[C@H]1C[C@@H](C)C=C2C=C[C@H](C)[C@H](CC[C@@H]3C[C@@H](O)CC(=O)O3)[C@H]21` [Simvastatin], the cell viability stood at 1.21.

On to `O=C(CSc1nc2c(c(=O)n1-c1ccccc1)SCC2)Nc1ccc(-c2ccccc2)cn1`, for which the cell viability is 0.887. To `CN1CCN(c2ccc3[nH]c(-c4ccc5[nH]c(-c6ccc(O)cc6)nc5c4)nc3c2)CC1` belongs 1.19. The compound `COc1cc2nc(N3CCCN(C)CC3)nc(NC3CCN(Cc4ccccc4)CC3)c2cc1OC` came in with a cell viability of 1.08. In turn, `O=S(=O)(c1cccc2cnccc12)N1CCCNCC1` [Fasudil hydrochloride] came in with a cell viability of 0.936. `O=C(c1ccc(F)c(F)c1Nc1ccc(I)cc1F)N1CC(O)([C@@H]2CCCCN2)C1` [Cobimetinib] returned a cell viability of 0.865. To `N[C@@H](CCCCNC(=O)C(F)(F)F)C(=O)O` [N-6-Trifluoroacetyl-L-lysine] belongs 0.966. With `CCc1nn(CCCN2CCN(c3cccc(Cl)c3)CC2)c(=O)n1CCOc1ccccc1` [Nefazodone hydrochloride], the cell viability was determined as 0.89. Consider `CC(C)c1cnn2c(NCc3ccccc3)cc(NCCCCCCN)nc12`, for which the cell viability turned out to be 0.781. The same measure for `C/C1=C/CC[C@H](C)C(=O)C[C@@H](C(C)C)C(=O)C1` [Curdione]: 1.01. With `NC1CCN(c2c(F)cc3c(=O)c(C(=O)O)cn(C4CC4)c3c2Cl)C1` (stereo not drawn) [Clinafloxacin], the cell viability came to 0.957. To `O=C1CSc2ccccc2N1Cc1cccc(C(F)(F)F)c1` belongs 0.951; to `C[C@H](Nc1ncnc2nc[nH]c12)c1cc2cccc(Cl)c2c(=O)n1-c1ccccc1` [Duvelisib], 0.939. Compound `CC(NCCc1ccc(O)cc1)C(O)c1ccc(O)cc1` (stereo not drawn) [Ritodrine hydrochloride] displayed a cell viability of 0.904. The compound `Cc1c(C(=O)N2CCOc3ccc(-c4ccc(N)nc4)cc3C2)ccc(S(C)(=O)=O)c1F` had a cell viability of 0.928. The same measure for `O=C(Nc1ccc(CN2CCOCC2)cc1)c1ccc(-c2cccc(Cl)c2)o1`: 0.816. Regarding `CN1CCC(=C2c3ccccc3CCn3c(C=O)cnc32)CC1` [Alcaftadine], the cell viability was 0.988. Compound `Cc1cc(F)c(C(=O)Nc2cccc(-c3nncn3C(C)C)n2)cc1-n1cnc(C2CC2)c1` [Selonsertib] registered a cell viability of 0.918. In turn, `CCC(=O)O[C@]1(C(=O)SCF)[C@H](C)C[C@H]2[C@@H]3C[C@H](F)C4=CC(=O)C=C[C@]4(C)[C@@]3(F)[C@@H](O)C[C@@]21C` [Fluticasone propionate] gave a cell viability of 0.772. The same measure for `Cc1cn(-c2cc(NC(=O)c3ccc(C)c(Nc4nccc(-c5cnccn5)n4)c3)cc(C(F)(F)F)c2)cn1` [Radotinib]: 0.964.

For the origin of these results see the supplement of paper PMC10600219.
